Measured values: EPA's CvTdb concentration-time database
Further values from the same series stand in other lists.

Legend:
Assay in all cases: concentration in plasma after dosing
Rat [1] = conditions: dosed: Perfluorodecanoic acid, 20 mg/kg, oral, Male, Harlan Sprague Dawley
Rat [2] = conditions: dosed: Perfluorodecanoic acid, 10 mg/kg, oral, Female, Harlan Sprague Dawley
Rat [3] = conditions: dosed: Perfluorodecanoic acid, 10 mg/kg, oral, Male, Harlan Sprague Dawley
Rat [4] = conditions: dosed: Perfluorodecanoic acid, 10 mg/kg, oral, Female, Harlan Sprague Dawley; remark: listed apart in the source
Rat [5] = conditions: dosed: Perfluorodecanoic acid, 10 mg/kg, oral, Male, Harlan Sprague Dawley; remark: listed apart in the source
Rat [6] = conditions: dosed: Perfluorodecanoic acid, 20 mg/kg, oral, Male, Harlan Sprague Dawley; remark: listed apart in the source
Rat [7] = conditions: dosed: Perfluorodecanoic acid, 20 mg/kg, oral, Female, Harlan Sprague Dawley
Rat [8] = conditions: dosed: Perfluorodecanoic acid, 2 mg/kg, oral, Male, Harlan Sprague Dawley
Rat [9] = conditions: 24 h; dosed: Perfluorodecanoic acid; 10 mg/kg; oral; Female; Harlan Sprague Dawley
Rat [10] = conditions: 864 h; dosed: Perfluorooctane Sulfonate; 20 mg/kg; oral; Male; Harlan Sprague Dawley
Rat [11] = conditions: 3360 h; dosed: Perfluorooctane Sulfonate; 2 mg/kg; oral; Female; Harlan Sprague Dawley
Rat [12] = conditions: 528 h; dosed: Perfluorooctanoic acid; 12 mg/kg; oral; Male; Harlan Sprague Dawley
Rat [13] = conditions: 3 h; dosed: Perfluorooctanoic acid; 40 mg/kg; iv; Male; F344
Rat [14] = conditions: 1 h; dosed: Perfluorooctanoic acid; 40 mg/kg; iv; Male; F344
Rat [15] = conditions: dosed: Fluorotelomer alcohol 8+2, 48 mg/kg, oral, Male, Harlan Sprague Dawley
Rat [16] = conditions: 3 h; dosed: Fluorotelomer alcohol 8+2; 48 mg/kg; oral; Male; Harlan Sprague Dawley
Rat [17] = conditions: 6 h; dosed: Fluorotelomer alcohol 8+2; 80 mg/kg; oral; Female; Harlan Sprague Dawley
Rat [18] = conditions: dosed: Perfluorooctanoic acid, 40 mg/kg, oral, Male, Harlan Sprague Dawley
Rat [19] = conditions: 48 h; dosed: Perfluorooctanoic acid; 80 mg/kg; oral; Female; Harlan Sprague Dawley
Rat [20] = conditions: dosed: Perfluorooctanoic acid, 6 mg/kg, oral, Male, Harlan Sprague Dawley
Rat [21] = conditions: 1 h; dosed: Perfluorooctanoic acid; 80 mg/kg; oral; Female; Harlan Sprague Dawley
Rat [22] = conditions: dosed: Fluorotelomer alcohol 8+2, 80 mg/kg, oral, Female, Harlan Sprague Dawley
Rat [23] = conditions: dosed: Fluorotelomer alcohol 8+2, 40 mg/kg, oral, Female, Harlan Sprague Dawley
Rat [24] = conditions: dosed: Perfluorooctanoic acid, 40 mg/kg, oral, Male, Harlan Sprague Dawley; remark: listed apart in the source
Rat [25] = conditions: 1 h; dosed: Perfluorooctanoic acid; 80 mg/kg; oral; Female; Harlan Sprague Dawley; remark: listed apart in the source
Rat [26] = conditions: 1 h; dosed: Perfluorooctanoic acid; 12 mg/kg; oral; Male; Harlan Sprague Dawley
Rat [27] = conditions: dosed: Perfluorooctanoic acid, 40 mg/kg, oral, Male, Harlan Sprague Dawley; remark: listed apart in the source
Rat [28] = conditions: dosed: Perfluorooctanoic acid, 6 mg/kg, iv, Male, F344
Rat [29] = conditions: dosed: Fluorotelomer alcohol 8+2, 48 mg/kg, oral, Male, Harlan Sprague Dawley; remark: listed apart in the source
Rat [30] = conditions: 1 h; dosed: Perfluorooctanoic acid; 12 mg/kg; oral; Male; Harlan Sprague Dawley; remark: listed apart in the source
Rat [31] = conditions: dosed: Perfluorooctanoic acid, 40 mg/kg, iv, Male, F344
Rat [32] = conditions: dosed: Perfluorooctanoic acid, 12 mg/kg, oral, Male, Harlan Sprague Dawley
Rat [33] = conditions: dosed: Perfluorooctanoic acid, 6 mg/kg, iv, Male, F344; remark: listed apart in the source
Rat [34] = conditions: dosed: Perfluorooctanoic acid, 48 mg/kg, oral, Male, Harlan Sprague Dawley

O=C(O)C(F)(F)C(F)(F)C(F)(F)C(F)(F)C(F)(F)C(F)(F)C(F)(F)C(F)(F)C(F)(F)F [Perfluorodecanoic acid]
Conditions | concentration in plasma [µg/mL]
Rat [1], 6 h | 77.2
Rat [1], 864 h | 17.5
Rat [2], 0.5 h | 14.9
Rat [2], 192 h | 54.4
Rat [2], 1848 h | 9.14
Rat [3], 12 h | 48.2
Rat [3], 864 h | 9.72
Rat [4], 12 h | 61.5
Rat [4], 864 h | 19.9
Rat [5], 6 h | 44.5
Rat [5], 1200 h | 7.65
Rat [5], 3360 h | 1.16
Rat [6], 6 h | 88.4
Rat [6], 864 h | 18.7
Rat [7], 1 h | 68.5
Rat [7], 192 h | 127
Rat [7], 2520 h | 12.3
Rat [8], 0.5 h | 2.77
Rat [8], 24 h | 10.9
Rat [8], 1848 h | 1.97

Conditions | concentration in plasma [µg/mL]
Rat [9] | 54.6

O=S(=O)([O-])C(F)(F)C(F)(F)C(F)(F)C(F)(F)C(F)(F)C(F)(F)C(F)(F)C(F)(F)F [Perfluorooctane Sulfonate]
Conditions | concentration in plasma [µg/mL]
Rat [10] | 24.2
Rat [11] | 0.393

O=C(O)C(F)(F)C(F)(F)C(F)(F)C(F)(F)C(F)(F)C(F)(F)C(F)(F)F [Perfluorooctanoic acid]
Conditions | concentration in plasma [µg/mL]
Rat [12] | 17.2
Rat [13] | 76.4
Rat [14] | 204
Rat [16] | 0.967
Rat [17] | 1.82
Rat [19] | 0.628
Rat [21] | 220
Rat [25] | 247
Rat [26] | 46.6
Rat [30] | 39.8

Conditions | concentration in plasma [µg/mL]
Rat [15], 0.5 h | 0.183
Rat [15], 9 h | 2.14
Rat [18], 3 h | 131
Rat [18], 24 h | 3.84
Rat [20], 3 h | 32.7
Rat [20], 192 h | 19.9
Rat [20], 1200 h | 2
Rat [22], 0.75 h | 0.741
Rat [22], 48 h | 0.0663
Rat [23], 1 h | 0.743
Rat [23], 24 h | 0.0587
Rat [24], 0.25 h | 66.5
Rat [24], 9 h | 60.4
Rat [24], 96 h | 0.0454
Rat [27], 1 h | 113
Rat [27], 12 h | 64.4
Rat [28], 0.25 h | 50.7
Rat [28], 6 h | 45
Rat [28], 864 h | 3.06
Rat [29], 0.5 h | 0.125
Rat [29], 9 h | 1.72
Rat [31], 0.25 h | 276
Rat [31], 6 h | 77.7
Rat [31], 48 h | 0.0319
Rat [32], 0.25 h | 16.7
Rat [32], 864 h | 10.1
Rat [33], 1 h | 45.9
Rat [33], 192 h | 18.4
Rat [34], 0.25 h | 44.7
Rat [34], 12 h | 246
Rat [34], 528 h | 18.8
